About 14,000 (4.5%) of roughly 310,000 compounds showed an effect of 50% or more. Effects have a minus sign here. The list shows a part of the results.

This note sets out measurements from paper PMC4336329 (PLoS ONE, 2015).
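Further: peak tail current of the secondary pulse compared with the same well before compound.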

The target of this assay is human ether-à-go-go-related gene (hERG) potassium channel (human, UniProt Q12809). Put plainly: primary screen, population patch clamp on CHO cells stably expressing hERG.
human ether-à-go-go-related gene (hERG) potassium channel, sequence (Q12809 whole entry, looked up): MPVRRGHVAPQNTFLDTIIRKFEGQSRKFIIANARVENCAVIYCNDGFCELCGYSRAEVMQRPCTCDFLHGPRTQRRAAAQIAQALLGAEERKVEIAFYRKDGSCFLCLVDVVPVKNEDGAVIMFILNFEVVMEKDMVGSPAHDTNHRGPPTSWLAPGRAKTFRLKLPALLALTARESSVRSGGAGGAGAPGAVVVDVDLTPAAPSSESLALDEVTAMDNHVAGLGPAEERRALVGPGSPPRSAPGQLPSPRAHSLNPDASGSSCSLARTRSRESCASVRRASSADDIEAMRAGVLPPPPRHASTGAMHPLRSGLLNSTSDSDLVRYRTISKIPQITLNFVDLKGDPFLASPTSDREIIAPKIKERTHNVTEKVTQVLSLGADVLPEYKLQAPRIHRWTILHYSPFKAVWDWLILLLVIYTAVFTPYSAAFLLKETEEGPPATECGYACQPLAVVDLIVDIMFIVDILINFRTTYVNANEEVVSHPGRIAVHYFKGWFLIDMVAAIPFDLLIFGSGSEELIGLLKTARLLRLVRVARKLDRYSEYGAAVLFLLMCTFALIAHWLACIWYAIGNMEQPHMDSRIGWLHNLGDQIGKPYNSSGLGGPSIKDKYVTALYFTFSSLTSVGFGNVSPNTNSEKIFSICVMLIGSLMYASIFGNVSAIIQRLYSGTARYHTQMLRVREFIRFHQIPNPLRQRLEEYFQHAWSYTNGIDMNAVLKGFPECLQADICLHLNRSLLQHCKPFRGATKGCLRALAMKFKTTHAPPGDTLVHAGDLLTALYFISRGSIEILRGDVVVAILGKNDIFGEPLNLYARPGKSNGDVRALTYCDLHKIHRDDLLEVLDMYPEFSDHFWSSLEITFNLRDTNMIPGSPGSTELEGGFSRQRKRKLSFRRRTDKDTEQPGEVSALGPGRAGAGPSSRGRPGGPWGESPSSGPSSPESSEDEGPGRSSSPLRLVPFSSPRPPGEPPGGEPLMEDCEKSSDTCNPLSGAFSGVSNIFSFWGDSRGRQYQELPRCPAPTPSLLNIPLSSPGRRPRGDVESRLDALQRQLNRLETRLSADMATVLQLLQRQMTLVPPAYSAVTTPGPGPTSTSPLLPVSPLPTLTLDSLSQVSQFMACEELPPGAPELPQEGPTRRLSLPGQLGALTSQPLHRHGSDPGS
In the case of `CSCCC(NS(=O)(=O)c1ccccc1F)C(=O)NC(C)c1ccccc1` (centres unmarked), the “hERG current change (%, negative = inhibition) at 10uM” value is listed as 13.8%. Consider `COc1ccc(/C=C2\N=C(SC)N(C)C2=O)cc1`, for which the “hERG current change (%, negative = inhibition) at 10uM” value is -13.7%.

On to `CC1N(C)c2cc(NC(=O)c3ccco3)ccc2C1(C)C` (centres unmarked), for which the “hERG current change (%, negative = inhibition) at 10uM” value is -13.9%. As for `Cc1ccc(-n2cnc(N)c2C(=O)c2cccc([N+](=O)[O-])c2)cc1`, the “hERG current change (%, negative = inhibition) at 10uM” value is recorded as -28%.

`CC(C)(C)c1ccc(Oc2ccc(NC(=O)c3cccs3)cn2)cc1`: the “hERG current change (%, negative = inhibition) at 10uM” value is 7.09%.

In the case of `COc1cc(/C=N/NC(=S)NCCN2CCOCC2)ccc1O`, the “hERG current change (%, negative = inhibition) at 10uM” value stood at 4.92%.

`Cc1cc(C)nc(N2CCCC(C(=O)NC3CCCC3)C2)n1` (centres unmarked): the “hERG current change (%, negative = inhibition) at 10uM” value is -6.97%. As to `COc1ccc(CNC(=O)CN2C(=O)COc3ccc(S(=O)(=O)N4CCOCC4)cc32)cc1`, the “hERG current change (%, negative = inhibition) at 10uM” value is 8.85%. In the case of `O=C(COc1ccc(Cl)cc1Cl)Nc1cccnc1`, the “hERG current change (%, negative = inhibition) at 10uM” value stood at 14.5%. With `Cc1ccccc1C(=O)N=c1ccn(-c2nc3ccccc3nc2NS(=O)(=O)c2ccccc2)cc1` the figure was 21.9%. With `Cc1ccc(/C(O)=C2/C(=O)C(=O)N(Cc3ccco3)C2c2cccs2)cc1` (centres unmarked), the “hERG current change (%, negative = inhibition) at 10uM” value is given as -8.53%. The same measure for `CN(C)S(=O)(=O)c1cccc(-n2sc3ccccc3c2=O)c1`: 4.27%; for `O=C(O)CSCc1cn2cc(Cl)ccc2n1`: 0.861%; for `Cc1nc2ccc(S(=O)(=O)Nc3cccc(-c4nc5cccnc5s4)c3C)cc2s1`: -10.8%. As for `O=C(NC1CCC(NC(=O)C(F)(F)C(F)F)CC1)C(F)(F)C(F)F` (centres unmarked), the “hERG current change (%, negative = inhibition) at 10uM” value turned out to be 0.0363%. The same measure for `CCc1onc(C)c1C(=O)O`: 13.3%. Take `Cc1ccc(NC(=O)CSCC(=O)Nc2ccccc2N2CCCC2)cc1`: the “hERG current change (%, negative = inhibition) at 10uM” value is -13.6%. With `Cn1c(CC(=O)Nc2ccccc2)nnc1SCC(=O)NC1CCCC1` the figure was 17.8%; with `CN(c1ccccc1)S(=O)(=O)c1nnc(NC(=O)C2CCCCC2)s1`, 2.6%; with `C#CCOc1ccccc1/C=C1/C(=O)ON=C1C`, 16.4%. For the compound `Cc1onc(-c2ccccc2Cl)c1C(=O)O/N=C(\N)c1ccccc1`, the “hERG current change (%, negative = inhibition) at 10uM” value came to 16%. The same measure for `CCNC(=O)CCn1nc(-c2ccc(C)cc2)c2ccccc2c1=O`: -10.6%; for `CCOc1ccc(C(=O)N2CCC3(CC2)NCCc2[nH]cnc23)cc1OCC`: 22.6%. The same measure for `Cc1cc(C)cc(C(=O)NC2C(=O)N3C(C(=O)O)=C(CSc4nnc(C)s4)CSC23)c1` (centres unmarked): 50.8%; for `Cc1ccc(S(=O)(=O)N2CCN(CCO)CC2)cc1-c1nnc2c3ccccc3c(C)nn12`: -13.9%. With `COc1ccc(S(=O)(=O)N2CCN(c3ccccn3)CC2)cc1OC` the figure was -12%; with `Cc1cc(OCC(=O)Nc2ccc3oc(=O)ccc3c2)ccc1Cl`, 13.4%.

For `COc1ccc(CNC(=O)C2CCN(C(=O)c3ccc(F)cc3)CC2)cc1OC`, the “hERG current change (%, negative = inhibition) at 10uM” value is reported as 0.861%. With `COc1ccc(Cc2nnc(NC(=O)c3ccc(Cl)c([N+](=O)[O-])c3)s2)cc1` the figure was 15%.

Turning to `COc1c(OC)c(O)c2c(=O)c(O)c(-c3ccccc3)oc2c1OC`, the “hERG current change (%, negative = inhibition) at 10uM” value is recorded as 9.46%. `Cc1nnc(-c2ccc(Oc3ccc(Cl)cc3)c([N+](=O)[O-])c2)o1`: the “hERG current change (%, negative = inhibition) at 10uM” value amounted to 4.67%. With `CCN(CC)S(=O)(=O)c1ccc(NC(=O)CN(c2ccc(OC)cc2OC)S(C)(=O)=O)cc1`, the “hERG current change (%, negative = inhibition) at 10uM” value is listed as -13%. For `COc1ccc(C(=O)NCCN2C(=O)S/C(=C\c3cccnc3)C2=O)c(OC)c1OC`, the “hERG current change (%, negative = inhibition) at 10uM” value was -9.86%. For `CCN(CC)CCn1c(=S)[nH]c2cc(C(=O)N3CC(C)CC(C)C3)ccc2c1=O` (centres unmarked), the “hERG current change (%, negative = inhibition) at 10uM” value is -14.7%.

Consider `CCCCSc1nc(C)cc(C)c1S(=O)(=O)c1ccccc1C`, for which the “hERG current change (%, negative = inhibition) at 10uM” value amounted to 13.5%.

Regarding `CC(C)C[C@H](NC(=O)c1nc[nH]c1C(=O)N1CCC(C)CC1)C(=O)OC(C)(C)C`, the “hERG current change (%, negative = inhibition) at 10uM” value is listed as -0.866%. As to `O=C(N/N=C/c1ccccc1[N+](=O)[O-])c1cccs1`, the “hERG current change (%, negative = inhibition) at 10uM” value is on record as 5.65%. With `CC1=NN(c2ccccc2)C(=O)/C1=C/c1cc2cc(C)ccc2nc1N1CCCCC1` the figure was 7.32%. On to `Cc1cc(N(CCCl)CCCl)ccc1/C=N/NC(=O)c1ccco1`, for which the “hERG current change (%, negative = inhibition) at 10uM” value was -14.1%.

`CN(C(=O)COc1ccc(S(=O)(=O)N2CCOCC2)cc1[N+](=O)[O-])C1CCS(=O)(=O)C1` (centres unmarked): the “hERG current change (%, negative = inhibition) at 10uM” value is 17.5%.

For the compound `Nc1c(-c2ccccc2)cnc2c(-c3ccccc3)cnn12`, the “hERG current change (%, negative = inhibition) at 10uM” value is listed as 9.28%.

As for `CCOCc1nnc(NC(=O)c2cccc(OC)c2)s1`, the “hERG current change (%, negative = inhibition) at 10uM” value is given as 11.7%. In the case of `CC(C)NC(=O)c1sc2nc(-c3cccs3)cc(-c3cccs3)c2c1N`, the “hERG current change (%, negative = inhibition) at 10uM” value was -9.32%. In the case of `O=S(=O)(N/N=C/c1cn(Cc2ccccc2)c2ccccc12)c1ccccc1`, the “hERG current change (%, negative = inhibition) at 10uM” value turned out to be 4.29%.
